Test results: PMC11532494 (Nature Communications, 2024)
Where “and” joins values, the source holds several entries; their conditions need not be identical. Equal entries are not always repeated. Where two headings read alike, the source gives them in different places.

Key:
RwDmhA (1b) [1] = target: T1, RwDmhA (1b) (Rhizorhabdus wittichii, UniProt A0A067XIQ6); type: biochemical; details: for % residual activity: individual replicates
RwDmhA (1b) [2] = target: T1, RwDmhA (1b); type: biochemical; details: for % residual activity, means: mean; for % residual activity: single measurement
BsAcuC (2c) = target: T2, BsAcuC (2c) (Bacillus subtilis, UniProt P39067); test: Inhibitor screening assay (10 µM or 1 µM); type: biochemical
T2 construct: made in house; host or cells: E. coli BL21 (DE3)
T2 sequence (P39067 1-387): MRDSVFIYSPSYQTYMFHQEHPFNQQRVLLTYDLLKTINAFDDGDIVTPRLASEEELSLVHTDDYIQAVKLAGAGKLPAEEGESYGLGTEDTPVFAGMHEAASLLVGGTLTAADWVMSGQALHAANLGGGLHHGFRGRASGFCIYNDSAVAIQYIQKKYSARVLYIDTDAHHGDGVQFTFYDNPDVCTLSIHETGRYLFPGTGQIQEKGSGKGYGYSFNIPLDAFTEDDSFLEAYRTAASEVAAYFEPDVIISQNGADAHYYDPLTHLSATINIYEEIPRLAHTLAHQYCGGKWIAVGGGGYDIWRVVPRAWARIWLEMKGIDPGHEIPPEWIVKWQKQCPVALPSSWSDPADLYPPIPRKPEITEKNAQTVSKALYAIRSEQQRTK
Text: Data was transformed to relative enzyme activity (%) compared to control wells without inhibitors.

VsHdaH (1b) [3] = type: biochemical, Vibrio sp.; details: for % residual activity, means: mean; for % residual activity: single measurement
VsHdaH (1b) [4] = type: biochemical, Vibrio sp.; details: for % residual activity: individual replicates

T1 sequence (A0A067XIQ6 1-369): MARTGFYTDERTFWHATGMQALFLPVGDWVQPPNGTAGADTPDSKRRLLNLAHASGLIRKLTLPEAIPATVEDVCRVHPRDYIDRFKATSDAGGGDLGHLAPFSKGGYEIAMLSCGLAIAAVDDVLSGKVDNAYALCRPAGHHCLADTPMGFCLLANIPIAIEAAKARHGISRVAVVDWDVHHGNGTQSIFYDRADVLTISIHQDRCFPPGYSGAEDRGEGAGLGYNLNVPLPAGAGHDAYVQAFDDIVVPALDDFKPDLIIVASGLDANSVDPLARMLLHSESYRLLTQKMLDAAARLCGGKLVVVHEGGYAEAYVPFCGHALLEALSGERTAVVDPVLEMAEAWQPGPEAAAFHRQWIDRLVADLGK

## O=C(CCCCCCC(=O)Nc1ccccc1)NO [SAHA, suberoylanilide hydroxamic acid]
RwDmhA (1b) [1]; inhibitor 1 µM, 1 µM
  % residual activity: 10.6% and 10.9%
RwDmhA (1b) [1]; inhibitor 1 µM
  % residual activity, mean: 10.75%
RwDmhA (1b) [1]; inhibitor 10 µM, 10 µM
  % residual activity: 1.3% and 1.4%
RwDmhA (1b) [1]; inhibitor 10 µM
  % residual activity, mean: 1.35%
RwDmhA (1b) [2]; [inhibitor] 1.52e-9 M
  % residual activity, means: 99.95%
  % residual activity: 98.6% and 101.3%
RwDmhA (1b) [2]; [inhibitor] 4.57e-9 M
  % residual activity, means: 94.6%
  % residual activity: 92.9% and 96.3%
RwDmhA (1b) [2]; [inhibitor] 1.37e-8 M
  % residual activity, means: 87.05%
  % residual activity: 86.1% and 88%
RwDmhA (1b) [2]; [inhibitor] 4.12e-8 M
  % residual activity, means: 71.15%
  % residual activity: 71.3% and 71%
RwDmhA (1b) [2]; [inhibitor] 1.23e-7 M
  % residual activity, means: 46.65%
  % residual activity: 45.7% and 47.6%
RwDmhA (1b) [2]; [inhibitor] 3.7e-7 M
  % residual activity, means: 22.75%
  % residual activity: 22.2% and 23.3%
RwDmhA (1b) [2]; [inhibitor] 1.11e-6 M
  % residual activity, means: 9.65%
  % residual activity: 9.2% and 10.1%
RwDmhA (1b) [2]; [inhibitor] 3.33e-6 M
  % residual activity, means: 4.4%
  % residual activity: 3.8% and 5%
RwDmhA (1b) [2]; [inhibitor] 1e-5 M
  % residual activity, means: 2.15%
  % residual activity: 2.1% and 2.2%
RwDmhA (1b) [2]; [inhibitor] 3e-5 M
  % residual activity, means: 1.4%
  % residual activity: 1.8% and 1%
BsAcuC (2c); 1 µM inhibitor, single measurements (two columns), 40 µM LGKac, 60 min, 37 °C
  % residual activity: 86.2%
BsAcuC (2c); 10 µM inhibitor, single measurements (two columns), 40 µM LGKac, 60 min, 37 °C
  % residual activity: 65%
BsAcuC (2c); BsAcuC (2c), inhibitor 1 µM, individual replicates, 1 µM
  % residual activity: 86.2%
BsAcuC (2c); BsAcuC (2c), inhibitor 10 µM, individual replicates, 10 µM
  % residual activity: 65%
VsHdaH (1b) [3]; [inhibitor] 1.52e-9 M
  % residual activity, means: 85.1%
  % residual activity: 80% and 90.2%
VsHdaH (1b) [3]; [inhibitor] 4.57e-9 M
  % residual activity, means: 75.2%
  % residual activity: 74.7% and 75.7%
VsHdaH (1b) [3]; [inhibitor] 1.37e-8 M
  % residual activity, means: 55.1%
  % residual activity: 55.4% and 54.8%
VsHdaH (1b) [3]; [inhibitor] 4.12e-8 M
  % residual activity, means: 30.1%
  % residual activity: 30.3% and 29.9%
VsHdaH (1b) [3]; [inhibitor] 1.23e-7 M
  % residual activity, means: 14.05%
  % residual activity: 14.8% and 13.3%
VsHdaH (1b) [3]; [inhibitor] 3.7e-7 M
  % residual activity, means: 5.45%
  % residual activity: 5.6% and 5.3%
VsHdaH (1b) [3]; [inhibitor] 1.11e-6 M
  % residual activity, means: 2.1%
  % residual activity: 1.8% and 2.4%
VsHdaH (1b) [3]; [inhibitor] 3.33e-6 M
  % residual activity, means: 1.25%
  % residual activity: 0.9% and 1.6%
VsHdaH (1b) [3]; [inhibitor] 1e-5 M
  % residual activity, means: 0.95%
  % residual activity: 1.2% and 0.7%
VsHdaH (1b) [3]; [inhibitor] 3e-5 M
  % residual activity, means: 0.75%
  % residual activity: 0.5% and 1%
VsHdaH (1b) [4]; inhibitor 1 µM
  % residual activity: 3.2%
  % residual activity, mean: 2.65%
VsHdaH (1b) [4]; inhibitor 1 µM, 1 µM
  % residual activity: 2.1%
VsHdaH (1b) [4]; inhibitor 10 µM, 10 µM
  % residual activity: 0.3% and 0.4%
VsHdaH (1b) [4]; inhibitor 10 µM
  % residual activity, mean: 0.35%
